Results from paper PMC10668032.
The other results are listed elsewhere or left out. At the low end of the ranking, values are background and their order means little.

Target: SIX1-Q177R homeodomain (UniProt Q15475)
Assay: universal protein binding microarray
Conditions: Universal all-10-mer PBM (8x60K, AMADID 030236), 300 nM GST-tagged protein, Alexa Fluor 488 anti-GST; buffer, salt, pH and temperature not stated; high values mean tight binding; most listed sequences are background and not binding sites; double strand, one strand shown

Sequence | binding signal
CTTTCAAC | 0.0495 E-score
GCTAGTAA | -0.173 E-score
TATACACA | 0.169 E-score
AGCGTGAG | 0.04 E-score
GCTCTGCC | -0.358 E-score
TAGTTCAA | -0.221 E-score
TCGGATAA | 0.194 E-score
TATCTGAA | -0.129 E-score
TGTTACAA | 0.0708 E-score
ACCGATCC | 0.0829 E-score
ACTTCTGC | -0.0736 E-score
CTTGCCTC | 0.141 E-score
AAATGAAT | -0.149 E-score
GCGTCATA | 0.0536 E-score
AGGCCTAA | -0.0975 E-score
AAGTGCCC | -0.118 E-score
ACGGTGGA | 0.111 E-score
CACTGTGC | 0.204 E-score
CAGCTAGG | -0.0209 E-score
GTTCTTTA | -0.0924 E-score
TGAATGCA | -0.106 E-score
AACCGGTT | -0.0456 E-score
GCCTGCTA | -0.118 E-score
GTCATTAA | 0.0473 E-score

Sequence | binding signal
ATTGGGTC | -0.00874 E-score
AAACTAAT | -0.222 E-score
AGGATACA | 0.159 E-score
AGAATGTG | -0.254 E-score
ACGTAAAT | -0.068 E-score
CGCCTACA | 0.0684 E-score
AACTTAAA | -0.212 E-score
TCGTCTCA | -0.162 E-score
CGAGGACG | 0.0644 E-score
CGTCTGAG | -0.0152 E-score
GCATCACA | -0.00293 E-score
GCTTATGA | 0.0776 E-score
GGCGCGGA | 0.0656 E-score
TAGTATAA | 0.0661 E-score
GCGTGAAA | 0.012 E-score
AGCAAGTA | -0.164 E-score
CTATTGCC | -0.126 E-score
GTACAGGA | -0.0674 E-score
AAAATCAC | -0.121 E-score
CCATCTTA | -0.0861 E-score
CACTGAAC | 0.0968 E-score
CACGATAA | 0.054 E-score
GAAAAGGC | -0.147 E-score
AACCGCTC | -0.232 E-score

Sequence | binding signal
TACACGCA | 0.406 E-score
CCGGGAGC | -0.02 E-score
CAGTCGGC | -0.108 E-score
AGCGCCAC | -0.179 E-score
GCGTTGAC | -0.0852 E-score
AAGGTCGA | -0.0495 E-score
CGATTATC | 0.0712 E-score
TAATCATA | -0.115 E-score
TGTTGCAA | 0.0416 E-score
TCTCGCAA | -0.00392 E-score
CCGCTTCG | 0.00142 E-score
CCCAGCTC | 0.0946 E-score
AATTCTGT | -0.299 E-score
CGTGTCAG | 0.441 E-score
CCGGCATA | 0.0203 E-score
AGGCTACT | -0.193 E-score
ATTCTCGG | -0.136 E-score
CGCAAGTA | -0.0605 E-score
AACGACGA | -0.176 E-score
ATACACTA | 0.364 E-score
ATACGCGG | -0.0353 E-score
GTGGGAAC | 0.0129 E-score
GGCGGGTA | 0.214 E-score
CGGGCCGC | -0.00792 E-score

Sequence | binding signal
ATGGGGGA | 0.0776 E-score
GATTGGCC | -0.185 E-score
CATTCTTA | -0.19 E-score
AGGGGACT | -0.0962 E-score
GCACTCAA | 0.062 E-score
CTTTTCTA | -0.252 E-score
ATCTCCTA | -0.114 E-score
AACATCGG | -0.138 E-score
GCCAAGCC | 0.00385 E-score
CGTGCACA | 0.0927 E-score
ACCAGTTC | -0.0186 E-score
AGGTCTGA | -0.245 E-score
AGGTGTAC | 0.47 E-score
ACATGTTC | -0.138 E-score
CACCACAG | 0.322 E-score
TCTTTTAA | -0.233 E-score
AAAACTCT | -0.121 E-score
CCGGGTGA | 0.117 E-score
GTCTGAAA | -0.107 E-score
GGCACCAC | 0.215 E-score
ACGACGGC | 0.00715 E-score
ACCTCAGT | 0.0287 E-score
